± gives the standard deviation of the averaged measurements. This is one part of the list.

The assay deals with PfAP2-I AP2 domain 3 (GST-tagged). Briefly: gcPBM binding intensity (ln(normalized median fluorescence intensity)); higher = stronger DNA binding. In outline: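 The highest Masliner-normalised natural-log median intensity across replicate spots of either probe orientation is reported as binding intensity. GST-tagged P. falciparum DNA-binding domains expressed in E. coli were applied for 1 h to an Agilent 4 × 180k array of primer-extended double-stranded 36-bp intergenic genomic probes plus negative controls, and bound protein was detected with Alexa488 anti-GST antibody and scanned at 488 nm.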
Take “TTTGATATAGAAAGAGCATGCAAGTTAGATAAAATA [TGCATGCA_site470]”: the “gcPBM binding intensity (ln)” value is 7.94 ± 0.71.

Turning to “AATAAATTATTATGTACACACATAATAGTATATATA [CACACA_site1820]”, the “gcPBM binding intensity (ln)” value is 7.71 ± 0.33.

As for “TATATATTAATATACACACACACATATATATATATA [CACACA_site1608]”, the “gcPBM binding intensity (ln)” value was found to be 9.22 ± 0.38.

As for “AACATGTTAAAATAAACACACAGCTAAGGTTTTTTT [CACACA_site157]”, the “gcPBM binding intensity (ln)” value is 7.4 ± 0.69.

Consider “AAAAAAAAAAAAAAATGTACAAATAGTAGTTACAGA [XGTACX_site2531]”, for which the “gcPBM binding intensity (ln)” value amounted to 8.11 ± 0.4.

Turning to “ATAATATATGTATATCCACACACATATATATATATA [CACACA_site8471]”, the “gcPBM binding intensity (ln)” value amounted to 9.17 ± 0.55.

Regarding “ATTTAAGATTTAATCACACACATATATATTATATAC [CACACA_site2907]”, the “gcPBM binding intensity (ln)” value worked out at 7.64 ± 0.54.

As for “GCAAATGTGAAAACGTGTACACATTTTATTTAATTT [XGTACX_site8000]”, the “gcPBM binding intensity (ln)” value was found to be 7.91 ± 0.42.

Take “TATTTGTAAATCGATACACACATATATATTAATATA [CACACA_site196]”: the “gcPBM binding intensity (ln)” value was determined as 7.63 ± 0.25.

“AAATGTAGATATTATCGTACACATATATTTATATAT [XGTACX_site6326]”: the “gcPBM binding intensity (ln)” value turned out to be 7.71 ± 0.4.

Consider “TAAAAAATAAATATATGTACGCAATAAATGTGTTAA [XGTACX_site4043]”, for which the “gcPBM binding intensity (ln)” value was 7.83 ± 0.11.

As to “ACACATATGCATATATGTACATAATATATTAAACTT [XGTACX_site5975]”, the “gcPBM binding intensity (ln)” value is 7.81 ± 0.45.

Consider “AAAAAAAAAAGACACACACACACACTAATACATACA [CACACA_site6473]”, for which the “gcPBM binding intensity (ln)” value worked out at 7.88 ± 0.26.

“ATGTTTTACAAAAACACACAAATGAATATAAACATA [CACACA_site6667]”: the “gcPBM binding intensity (ln)” value is 7.58 ± 0.66.

With “AAATATATATGTATATGTACTTATTTATTTAAAAGG [XGTACX_site4093]”, the “gcPBM binding intensity (ln)” value was determined as 7.58 ± 0.51.

For “TTTATTATATATAAAAGTACACATTGTAAGGAAACA [XGTACX_site8560]”, the “gcPBM binding intensity (ln)” value worked out at 8.2 ± 0.39.

“AAAAGTGATGAGACAAGTACTAACATATTATTATTA [XGTACX_site1533]”: the “gcPBM binding intensity (ln)” value was found to be 7.58 ± 0.6.

In the case of “TTTTCTGTATAAACTTGTACATATATTTCCTTGTTT [XGTACX_site5745]”, the “gcPBM binding intensity (ln)” value was 7.87 ± 0.59.

As for ATACCTATTTGATGAGTGCATTATCCAATATATGTA, the “gcPBM binding intensity (ln)” value amounted to 11.3 ± 0.65.

Consider “ATATGTTCTACAAAAAAGATGTCGATTTATTTTCTT [CACACA_negctrl_site1179]”, for which the “gcPBM binding intensity (ln)” value was 7.51 ± 0.69.

With “AAATAAAATATCAATTAAAACAGAATTGAATTTTTA [CACACA_negctrl_site181]”, the “gcPBM binding intensity (ln)” value is 7.21 ± 0.53.

On to “TATAAAATGACTATATATAATATTAAAAAAAAAAAA [TGCATGCA_negctrl_site387]”, for which the “gcPBM binding intensity (ln)” value is 7.76 ± 0.54.

With “ATTATATATACATAATGTACATATATATATTACCTT [XGTACX_site7624]”, the “gcPBM binding intensity (ln)” value came out at 7.8 ± 0.52.

On to “TAAATTAAGAATTTTACACACATTAAATAAAAAAAA [CACACA_site3638]”, for which the “gcPBM binding intensity (ln)” value was 7.62 ± 0.52.

For the sequence “AAAAAAAAAAAAAATTCACACACATATAAAAAATTA [CACACA_site8140]”, the “gcPBM binding intensity (ln)” value is 7.81 ± 0.34.

Turning to “AAATTAGGAAATTGCACACAAAAAAAAACATATTAT [CACACA_site4074]”, the “gcPBM binding intensity (ln)” value is 8.57 ± 0.12.

Consider “TTTTTTTATTTTTTTATAAATGTATTTCTATTATTT [CACACA_negctrl_site1562]”, for which the “gcPBM binding intensity (ln)” value is 7.48 ± 0.68.

As for “TTTTTTTTTTTTTGTGTGCACCTTATTTTTTTGTAT [GTGCAC_site9617]”, the “gcPBM binding intensity (ln)” value was 10.7 ± 0.57.

Regarding “CAAACACCCAAACACACACACACATACATACATACA [CACACA_site8044]”, the “gcPBM binding intensity (ln)” value came out at 9.03 ± 0.4.

Turning to “CTATTGTTAAATATAATACACACGTTTTTAAAAATA [CACACA_site2183]”, the “gcPBM binding intensity (ln)” value came to 7.78 ± 0.46.

As for “ATAGTAATGCATAAATATATATTATATATATATATA [XGTACX_negctrl_site576]”, the “gcPBM binding intensity (ln)” value is 9.21 ± 0.49.

On to “GTATATATTTTGTATTCATTTGTCACATATAATAGA [CACACA_negctrl_site506]”, for which the “gcPBM binding intensity (ln)” value stood at 7.97 ± 0.57.

As for “TCTTTCTCTCTTCAAAGTACATATAATATATACTTC [XGTACX_site7982]”, the “gcPBM binding intensity (ln)” value is 7.88 ± 0.52.

In the case of “CAGTTAATGTTGGTACTTTATATAAAAATGATATGA [CACACA_negctrl_site1600]”, the “gcPBM binding intensity (ln)” value stood at 7.88 ± 0.45.

As to “ATAACAACATTTGATAAACACACAGAAGTATAAATA [CACACA_site8739]”, the “gcPBM binding intensity (ln)” value was found to be 7.61 ± 0.52.

As for “AAAATATAGTTATCAATATATAATATTTTTTTTTTA [CACACA_negctrl_site459]”, the “gcPBM binding intensity (ln)” value is 7.11 ± 0.51.

As for “TTATTAATATTGCATGCACACTATATAATAATTGAA [CACACA_site8258]”, the “gcPBM binding intensity (ln)” value came out at 8.74 ± 0.43.

In the case of “TATAAATAGGCATATACACACTTTTAATATTCATAA [CACACA_site6123]”, the “gcPBM binding intensity (ln)” value was 7.67 ± 0.53.

With “ATTTTTCATATATATATATTAATATATATATATTAA [CACACA_negctrl_site1681]”, the “gcPBM binding intensity (ln)” value is 8.13 ± 0.28.

In the case of “TTTGAACGAAAATACTCACACATATTTATAAACATT [CACACA_site5182]”, the “gcPBM binding intensity (ln)” value was found to be 7.45 ± 0.56.

Turning to “GTATTTTTAAATGACACACACATATATATATATATA [CACACA_site1662]”, the “gcPBM binding intensity (ln)” value was determined as 9.35 ± 0.41.

For the sequence “TGAATATTTATACATGCACACTAAAATAAAGAATCT [CACACA_site5351]”, the “gcPBM binding intensity (ln)” value is 8.935 ± 0.035.

On to “AAAAATATATTATATGTACACACAAAATTAAGGGAT [CACACA_site8384]”, for which the “gcPBM binding intensity (ln)” value stood at 8.35 ± 0.54.

“AAAATTTCTTTTTTTTGTACATATATAATAATATAT [XGTACX_site7107]”: the “gcPBM binding intensity (ln)” value was 7.82 ± 0.39.

For the sequence “TTTTTTTTTTTTGAGTGTACTAAAATATTACCTTTT [XGTACX_site646]”, the “gcPBM binding intensity (ln)” value was 8.14 ± 0.91.

The record behind these values is the supplement of paper PMC11417369.
